Test results: the supplement of paper PMC11417369
Some of the results follow.

The sequences below were run on PfHDP1 homeodomain (GST-tagged) (assay: gcPBM binding intensity (ln(normalized median fluorescence intensity)); higher = stronger DNA binding).
Procedure, shortened: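 For binding intensity, the highest Masliner-normalised natural-log median intensity across replicate spots of either probe orientation was taken. Protein bound to the array was stained with Alexa488 anti-GST antibody and scanned at 488 nm. The protein, GST-tagged P. falciparum DNA-binding domains from E. coli at about 25 μg on average, had been applied for 1 h to an Agilent 4 × 180k array of primer-extended double-stranded 36-bp intergenic genomic probes and negative controls.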

Sequence | gcPBM binding intensity (ln)
GGTGATATAATATATACATGCACATATATATTATTA [TGCATGCA_site970] | 9.05
TTACAAAAAAATAATTGTACATACAATTTCTGTTAT [XGTACX_site877] | 6.24
TTTATATGTATGAAGTGTACACATATATTGTATTTT [XGTACX_site5731] | 6.73
TATGGAAATATATATTGTACGTATGACCTTTAAAAA [XGTACX_site3935] | 6.45
ATTAGTTTACACATATGTACATATATTACAACAAAA [XGTACX_site275] | 7.06
TAAGATAAAAAAAATGCATGTTCTTATAATATTGTC [TGCATGCA_site939] | 6.46
GTAAGCATAAATATATGTACATACATATACAGATAT [XGTACX_site3361] | 6.46
ATATATATATATATATGTACATAATATATGTCCTAT [XGTACX_site5087] | 9.26
ATTATATCATCTAAAACATGCACACATATGTACTCT [TGCATGCA_site949] | 8.2
GTTGAGAAAATATGTGCATGTCAGGTTAAATTTTTA [TGCATGCA_site744] | 7.62
AATAAAAATAATGAATGTACATATATATATACAATA [XGTACX_site3342] | 6.09
ATATATAACGTGCACACACACATTTACGTATGAATA [CACACA_site6948] | 10.2
TATGACATATCCTGTAGTACAACGTATATATAAGAT [XGTACX_site1327] | 6.53
ATATATAATTTTTGCTGTACACAAAATATTAATTTA [XGTACX_site2057] | 7.22
TTTTATTAAAACCACGCATGCAGAGGAAACGGTGAG [TGCATGCA_site1029] | 7.24
TTCTGTATAATATAAAAACAAAAATTAAATTAAAAC [CACACA_negctrl_site81] | 6.43
CATAAAATATAAAACACACACACATATATATATATA [CACACA_site223] | 9.32
TATTATATAAATATACGTACATATACTAACCTTTTA [XGTACX_site6317] | 6.48
AAATTTTTTATTCTAATTAATATTTACACAATATAT [TGCATGCA_negctrl_site376] | 6.42
TTCCATGTAGGACATGCATGCAGTTTTTAAAATATT [TGCATGCA_site481] | 6.95
TTTTTTTCAATATTTGCACACGATTATAATATTTAA [CACACA_site2237] | 10.3
AATATTCGTAATTGATGTACTTGTAATTCATACATT [XGTACX_site8314] | 6.32

Sequence | gcPBM binding intensity (ln)
TTTATAATAAAATTTTTACACACTTTAAAAAAAAAA [CACACA_site8070] | 6.27
TATAATAAAAATAATACACACATATATAGCAATCGT [CACACA_site3241] | 7.17
AATAAATATCTGTACACACACAAATAAATACATATC [CACACA_site5108] | 6.63
CAGAATAATTTTATCGGTACACACTGTATGCATAAT [XGTACX_site736] | 6.88
TTTATGTATTTTTATGCACACATGCGTGGCTTATAT [CACACA_site4374] | 10.4
TACGGACATACTAACGGACACACGTAAGAAAAAAAA [CACACA_site602] | 6.44
TCTTTGTACTTTCACATGTACACCCAAATGGAAATT [CACACA_negctrl_site1442] | 6.9
AAATAAATCTTATGCACACAAATAATTAATGAAACA [CACACA_site5011] | 10.6
ATATTTATGGAATATACACACATGTATAATTACATA [CACACA_site7045] | 6.35
AGGACTAATATTTGAACACACATATAATAAATACAT [CACACA_site6068] | 6.55
GTTTGGTGGTGTTTTGGTACGTACGGGGGTGTATGT [XGTACX_site1211] | 7.39
TTTCCATTTTCTCTATGTACATAAAAATGAGATAAA [XGTACX_site5689] | 6.62
CACACGCACGGACACACACACAAAAAAAAAAAGAAA [CACACA_site6378] | 7.27
AAGACCATATGAATAATGCACACGTTTTAAAATATT [CACACA_site2323] | 10.1
TAAATGTTAAAATTCACACAAATATGTGCGGAATAT [CACACA_site5055] | 7.11
GGAATTTTTATTCGAAGTACTGTTGTGAGTAATAAA [XGTACX_site8599] | 6.76
TGCAAGGAACAACACACACACACATAAATGTATATA [CACACA_site8149] | 6.75
ACCCATTTGATAATAATGCACACCACATATATTTAT [CACACA_site3061] | 9.94
ATATATAATATATACACACACATGTATATATAAATA [CACACA_site1968] | 6.85
TTTGACTAAATTAAATATTAAAGTATGGATTATTCT [CACACA_negctrl_site833] | 5.98
ATATGTATTTATGTATTTATGTATTTTTATATTTTT [CACACA_negctrl_site595] | 6.37
AAAAAAAAAAAACACACACACACATTCAATATAAAA [CACACA_site40] | 6.62

Sequence | gcPBM binding intensity (ln)
TGGAAAATAAAGTACGCACACAAAAATTCTCTTCAT [CACACA_site2327] | 6.8
ATATTATTTTATGCTACACACATTTTCTCTTATAAA [CACACA_site943] | 7.25
TTCAAACATATTAATTGTACATACAACAAAACCATG [XGTACX_site5149] | 6.7
ATAAGTAATATAATATGTACATATATATATATATAT [XGTACX_site3818] | 9.23
AAGAAATAAATACATACACACATATATATATATATA [CACACA_site3362] | 9.56
AGAATAATTTTATCGGTACACACTGTATGCATAATA [CACACA_site374] | 7.05
ATGCAAAATAAAGAAGCACACAAAAATGAAATATAT [CACACA_site9217] | 6.87
GGAAATTTCAATATTTGTACATATATATATATATAT [XGTACX_site3222] | 9.34
TATATATTGTTATAATGTACATAATATTTTATCTGC [XGTACX_site4983] | 6.48
TACAGATATTTTATTTCACACATTTTATCATTTTCT [CACACA_site5701] | 6.68
TTCAAAAAAGGAAAGTTGCACTTGATACGCTTATTA [GTGCAC_site9411] | 7.38
TTTTTTATTTTTTGTTATATTTATAATAATTTATGA [XGTACX_negctrl_site260] | 6.46
TACTTTACACATATTTTTAATTATTCTGAATTCAAA [GTGCAC_negctrl_site253] | 6.79
ATATATATATATGTAGTGCATTTTATATATAATATT | 9.42
TAAAAGTTCACCTGTACACACATATATATATGTACA [CACACA_site1707] | 6.58
TTCTTTATTTTTTCTACACACATTATATATTCAAAG [CACACA_site5866] | 7.44
AAATATTAAATGACAAAAAAAAAAAAAAAAGGGGTT [CACACA_negctrl_site951] | 6.02
TATTTTGAAAATAAAAGTACAAATTTTATATTTAAA [XGTACX_site3238] | 6.02
TATTTATATTCATAATGTACATTCAATTATTGTTTT [XGTACX_site4191] | 6.76
ATATAAAATAATACATGTACATATTATATATATATA [XGTACX_site1082] | 8.59
TATATACGCATTTTTATACACACTTGTTTTATAAAA [CACACA_site727] | 6.83
TTCTATATTTCTTTTTGTACATATAAATTCAAATAA [XGTACX_site2476] | 6.49

Sequence | gcPBM binding intensity (ln)
TATAATATATTTTAATGTACGTACATCCCGATTAAT [XGTACX_site7651] | 6.63
ATTTTTTTTTCTTAATGTACATACCAAAAAGAAAGA [XGTACX_site5471] | 6.72
TATTAATATATATGTTGTACAAGTTTTTTTTTTTTT [XGTACX_site5865] | 6.47
GATAAAATATGTTGCCGTACATATTCATATACTTAA [XGTACX_site4776] | 6.35
TTTGTCTGCATACGCACACACGTGTACCATCTTATG [CACACA_site4784] | 7.89
ATATTAGTCGAATGATGTACACACATACAAAACATT [XGTACX_site8613] | 6.65
ATCAAATTTGGACATGCATGTGTGTGTAAAACCATG [TGCATGCA_site309] | 7.91
AATATTTTTTAAATGTGTACATAGGTATAGCACACA [XGTACX_site8690] | 6.67
AATTATTCTCTTTTCATTTGAACAATATGCTTAAAA [CACACA_negctrl_site995] | 6.59
GACTGCACTTTAAGCACACAAATATATTTTTTTTAT [CACACA_site1249] | 7.88
ACACATTCGAAAAATTGTACATATATAACAGAATAT [XGTACX_site7106] | 6.66
AGTCATATAAATAGTAGTACTGTGTGTGAAGAAAAA [XGTACX_site5056] | 6.81
ACAAATATGAGAAATTGTACATATAATAAAATAGTA [XGTACX_site2573] | 6.74
GATATGATATGATATGCATGTAACAAATTTTTTTAA [TGCATGCA_site268] | 6.98
AAAAAAAAATATATATATATATATATATTTATGTAT [GTGCAC_negctrl_site483] | 6.92
ATATTAATTTCTTATGCATGTTCTACCAAATTGTAT [TGCATGCA_site38] | 7.09
AAAAAAAATAAAAATAGTACTCAAAAAATTATGAAT [XGTACX_site3073] | 6.4
TTCTTCAATAATAAGTGTACATATGCATACATTATA [XGTACX_site1502] | 6.81
AATTAAAAAATTTATGCACACTTTAAAAAAAAAAAA [CACACA_site5962] | 9.66
ATAATAAAATAAGAAGCACACAAATATTATATATAA [CACACA_site9319] | 6.72
TTTTTTTTTTTTTTAACACACATATATATATTTTTC [CACACA_site1922] | 6.67
CCTCATCCACTATGCACACAAAAAAGAAATACACTA [CACACA_site3422] | 9.52
